Over roughly 110,000 compounds, “z-score” has its median near -0.1; the highest 2% begin near 2. Some of the results follow. Activity calls are given as the source filed them.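 How the source made its calls: active means z-score in the third read window above 3 or below -3; inactive means the rest.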

The target in the assay is Metabotropic glutamate receptor 8 (Rattus norvegicus) (UniProt P70579). Description: mGluR8 Gi/Go-coupled signaling modulation – cell-based, rat, thallium flux, HTS, primary screen (AID 488969). The conditions noted are these: HEK293 rat mGluR8, GIRK (G protein-gated inwardly rectifying potassium channel) thallium flux, FluoZin2; at 10 µM; stronger effect = higher value; submaximal glutamate (EC20) added with thallium.
UniProt P70579, sequence (P70579 whole entry, looked up): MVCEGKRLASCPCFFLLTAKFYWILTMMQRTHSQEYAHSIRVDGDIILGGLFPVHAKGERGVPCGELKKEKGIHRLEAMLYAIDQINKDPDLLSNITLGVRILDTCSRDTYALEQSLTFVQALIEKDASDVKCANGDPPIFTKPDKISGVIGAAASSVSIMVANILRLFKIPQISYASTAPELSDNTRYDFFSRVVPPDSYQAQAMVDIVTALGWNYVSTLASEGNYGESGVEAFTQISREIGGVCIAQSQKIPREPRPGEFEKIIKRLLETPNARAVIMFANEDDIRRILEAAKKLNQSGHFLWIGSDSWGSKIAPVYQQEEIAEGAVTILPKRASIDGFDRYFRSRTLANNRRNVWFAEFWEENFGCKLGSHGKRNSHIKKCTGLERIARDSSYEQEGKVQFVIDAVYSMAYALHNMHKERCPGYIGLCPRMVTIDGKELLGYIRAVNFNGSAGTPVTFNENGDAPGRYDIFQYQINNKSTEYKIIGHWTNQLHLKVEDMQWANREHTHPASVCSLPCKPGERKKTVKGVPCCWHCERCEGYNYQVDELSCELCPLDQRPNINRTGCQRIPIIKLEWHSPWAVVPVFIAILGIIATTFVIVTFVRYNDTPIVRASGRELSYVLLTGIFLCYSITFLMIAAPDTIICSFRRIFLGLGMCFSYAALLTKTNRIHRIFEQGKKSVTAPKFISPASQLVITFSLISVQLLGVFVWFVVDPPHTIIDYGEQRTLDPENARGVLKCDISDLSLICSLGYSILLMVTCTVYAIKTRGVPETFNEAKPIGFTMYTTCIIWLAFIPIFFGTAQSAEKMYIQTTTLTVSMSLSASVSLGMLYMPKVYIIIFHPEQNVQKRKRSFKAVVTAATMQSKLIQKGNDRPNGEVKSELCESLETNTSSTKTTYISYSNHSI
As to `CCCC(=O)NC(c1ccccc1Cl)c1c(O)ccc2ccccc12` (stereo not given), the z-score was found to be 0.148.

For `COc1ccccc1NC(=O)/C=C/C(N)=O`, the z-score is 0.11. As for `CCCCNC(=O)C(CC)Sc1nc2sc(C(=O)OC)c(C)c2c(=O)n1N` (stereo not given), the figure is -0.308; as for `Cc1ccc(/S(C)=N/S(=O)(=O)c2ccc(C)cc2)cc1` (stereo not given), 0.304.

As to `Cc1cc(C(=O)O)c(CSc2ncn[nH]2)o1`, the z-score is -0.141. Consider `COCc1nnc(NC(=O)CCCOc2ccccc2OC)s1`, for which the z-score is 0.141. With `CCC1Oc2ccccc2N(CC(=O)NCCCN2CCOCC2)C1=O` (stereo not given), the z-score came to 0.42. The compound `COc1ccc(NC(=O)C2CCCN2C(=O)NCc2ccccc2)c(OC)c1` (stereo not given) showed a z-score of 0.928. The result for `CCOC(=O)C1C(=O)Nc2nc3ccccc3n2C1C(C)C` (stereo not given) reads -0.438. As for `COc1ccc(NC(=O)/C=C/c2cc(Br)ccc2OC)cc1`, the figure is -0.202; as for `O=C1N/C(=N/N=C/c2ccccc2)SC1(c1ccccc1)c1ccccc1`, -0.186; as for `COc1ccccc1NS(=O)(=O)N(C)C`, -0.202.

Consider `O=[N+]([O-])c1cc(/C=N/Nc2nc3ccccc3[nH]2)c(O)cc1O`, for which the z-score is -0.273.

As to `Cc1ccc(NC(NC(=O)c2cccs2)C(Cl)(Cl)Cl)cc1` (stereo not given), the z-score is -0.497. As for `CCCCC(CCC(=O)Nc1nccs1)C(=O)O` (stereo not given), the figure is -0.0988.

Consider `CN(CCCNC(=O)c1cccc(N2CCCC2=O)c1)c1ccccc1`, for which the z-score was -0.176.

For the compound `CCOC(=O)N1CCN(C(=O)CSCc2nc(-c3ccccc3F)oc2C)CC1`, the z-score is -0.628.

As to `Cc1cc(C(=O)N2CCC(Cc3ccccc3)CC2)ccc1[N+](=O)[O-]`, the z-score was -0.573. The result for `Cc1ccc(OCCC(=O)NCCc2ccc(S(N)(=O)=O)cc2)cc1` reads -0.083. As for `Nc1ncc(-c2ccc([N+](=O)[O-])cc2)cn1`, the z-score was -0.418. The result for `COc1cc(OC)c2c(c1)OC(c1ccc(OC)c(OC)c1)C(O)C2=O` (stereo not given) reads 0.0753; that for `Cc1ccc(C(=O)OCc2nc(N)nc(Nc3ccccc3C)n2)cc1`, -0.21. As for `NS(=O)(=O)c1ccc(CCNC(=O)C2CCCCN2S(=O)(=O)c2ccccc2)cc1` (stereo not given), the figure is -0.178; as for `COc1ccc(-c2cc(C(F)(F)F)n3nc(C(=O)NCc4ccco4)cc3n2)cc1`, 1.09.

`COCC(=O)Nc1ccc(N(C)C)cc1` had a z-score of 0.287.

Regarding `O=C(Nc1ccc(Cl)cc1)Nc1nnc(SCc2ccccc2)s1`, the z-score was -0.368. Turning to `CCOC(=O)N1CCC(NCCNC(=O)c2ccccc2)CC1`, the z-score is 0.292. `COCCn1nnnc1CN1CCC(Cc2ccccc2)CC1` came in with a z-score of 0.866. The result for `CCS(=O)(=O)N1CCN(c2c(Cl)cccc2[N+](=O)[O-])CC1` reads -0.0555; that for `CCCCCCNC(=O)c1cc(-c2ccco2)nc2ccccc12`, -0.638; that for `COc1ccc(OC)c(/C=N/NC(=O)CCCC(=O)Nc2cccc(Br)c2)c1`, -0.48. On to `COc1ccc(C2C(C(=O)N3CCN(c4ccccc4)CC3)c3ccccc3C(=O)N2C)cc1OC` (stereo not given), for which the z-score amounted to 0.758. Regarding `COCCNC(=O)c1onc(CSc2cc(C)cc(C)c2)c1C(=O)O`, the z-score was -0.152. As to `COc1cccc(NC(=S)NCc2cccs2)c1`, the z-score was -0.106. The result for `Cc1c(-c2ccccc2)[n+](=O)c(-c2ccco2)c(C)n1[O-]` reads -0.246. Turning to `O=c1cc(CSc2nnnn2-c2ccccc2)nc(Nc2ccc(F)cc2)[nH]1`, the z-score worked out at 0.316. As to `CCCCCCNc1c([N+](=O)[O-])cc(C)cc1[N+](=O)[O-]`, the z-score is -0.2. For `CC(=O)c1ccc(N2CCC(c3cc(-c4ccc(Cl)cc4Cl)n[nH]3)CC2)c([N+](=O)[O-])c1`, the z-score stood at 0.00983. The result for `CCn1c(SCC(=O)NCCc2ccccc2)nnc1-c1ccco1` reads 0.117. Compound `O=c1cc(/C=C/c2c(F)cccc2Cl)[nH]c2ccccc12` returned a z-score of 0.185. Consider `Cc1c(/C=N/NC(=O)c2cccnc2)c2ccccn2c1C(=O)c1ccc(F)cc1`, for which the z-score is -0.992. As for `CCC(=O)Nc1cc(-c2nn(CC(=O)N3CCCCC3)c(=O)c3ccccc23)ccc1N1CCOCC1`, the figure is 0.174. As for `COc1ccc(C(=O)N2CCN(c3ccc([N+](=O)[O-])c(NCCc4ccc(OC)c(OC)c4)c3)CC2)cc1`, the figure is 0.418; as for `Cc1ccc(NC(=O)CC2C(=O)NCCN2C(=S)Nc2ccccc2)c(C)c1` (stereo not given), -0.193; as for `Brc1cccc(-c2nnc(SCc3ccon3)n2-c2ccccc2)c1`, -2.54. The result for `Fc1ccccc1COc1ccc(/C=N/NC(=S)NCc2ccccc2)cc1` reads 0.431. Consider `O=C(NCc1cccnc1)/C(=N\O)c1ccccc1`, for which the z-score was 2.02.

Consider `CCOC(=O)Cn1c(S(=O)(=O)Cc2cccc(F)c2)nc(-c2ccccc2)c1-c1ccccc1`, for which the z-score was -0.568. With `CC(=O)c1cccc(NC(=O)N2CCCC2C(=O)Nc2c(C)cccc2C)c1` (stereo not given), the z-score was 0.484. Regarding `Cc1nc([N+](=O)[O-])c(Br)n1CC(=O)c1ccccc1`, the z-score is -0.0872. `O=C(Nc1cccc(F)c1)c1ccccc1` displayed a z-score of 0.384. Turning to `O=c1cc(NCc2ccco2)[nH]c(=O)n1-c1ccc(Br)cc1`, the z-score was -0.36. With `Cn1cc(C(c2ccccn2)c2cn(C)c3ccccc23)c2ccccc21`, the z-score was -0.248. On to `CC1CCc2nc3ccccc3c(C(=O)OCC(=O)N3CCc4ccccc43)c2C1` (stereo not given), for which the z-score was -0.34.

On to `Cc1cc(C(F)F)n2ncc(C(=O)NC3CCCCCC3)c2n1`, for which the z-score is -0.418. As for `Cc1c(/C(O)=C2\C(=O)C(=O)N(CCN(C)C)C2c2ccco2)cnn1-c1ccccc1` (stereo not given), the figure is -0.0986.

As to `CNc1nc(Nc2ccc(C)c(Cl)c2)nc(N)c1[N+](=O)[O-]`, the z-score was -2.03. Take `O=C(NNC(=O)C1CCCCC1)c1cnccn1`: the z-score was -0.2. As for `CCOC(=O)Cn1c(S(=O)(=O)Cc2ccc(Cl)cc2)nc(-c2ccccc2)c1-c1ccccc1`, the figure is 0.0233; as for `CCCC(=O)Nc1ccc(Cl)c(NC(=O)c2ccc(Br)o2)c1`, -0.645. For the compound `c1ccc(C2Nc3ccccc3-c3nc4ccccc4n32)cc1` (stereo not given), the z-score is -0.556. As for `CN(C1CCCCC1)S(=O)(=O)c1ccc(S(=O)(=O)N2CCN(CCC#N)CC2)cc1`, the figure is 0.242.

Take `Cn1c(C(=O)O)c(CC(=O)Nc2ccccc2F)c2ccccc21`: the z-score is -0.861. As to `CN(C)c1cc[n+](CC(=O)Nc2ccc([N+](=O)[O-])cc2Cl)cc1`, the z-score was -0.0606. Take `CC(Oc1ccc(-c2ccccc2)c(F)c1)c1ccn(S(=O)(=O)c2ccc(Cl)cc2)n1` (stereo not given): the z-score was -0.269. As for `CCOc1ccc(NC(=O)CSc2nnc(C(C)C)n2CC)cc1`, the figure is 0.698. The result for `CCCCOC(=O)CSC1=C(C#N)C(c2ccccc2OCC)C(C#N)C(=O)N1` (stereo not given) reads -1.97. The result for `COc1cc(C(=O)OCC(=O)Nc2c(F)c(F)c(F)c(F)c2F)cc(OC)c1OC` reads 0.0147; that for `CCOC(=O)C(C)N1N=C(/C=C/c2ccc(OC)cc2)CCC1=O` (stereo not given), 0.00131.

With `Cc1ccc(-c2nnc(SCC(=O)Nc3nccs3)n2N)cc1`, the z-score is -0.189. As to `O=C(c1ccccc1F)N1CCN(Cc2cccc(Cl)c2)CC1`, the z-score was -0.421. As for `C/C(=N\NC(=S)NC1CCCCC1)c1cccc(Br)c1`, the figure is -0.438. As for `CCOc1ccc(-n2c(Cc3cc(=O)[nH]c(=O)[nH]3)nnc2SC(C)C(=O)OC)cc1` (stereo not given), the figure is active: 12.7; as for `COC(=O)c1cc2c(ccn2-c2ccc(F)cc2)n1C(C)C`, 0.713.

Take `CC(=O)c1cccc(-n2nnnc2SCC(=O)N2CCCC2)c1`: the z-score was -0.00861. The result for `CCOc1ccc(OCC)c(NC(=O)CN(C)S(=O)(=O)c2cccc3nsnc23)c1` reads -1.39; that for `COc1ccc2ccccc2c1/C=N/O`, -0.86.

The compound `COc1cc(NC(=O)CC2NCCNC2=O)cc(OC)c1` (stereo not given) displayed a z-score of 0.425. As for `NC(=O)c1c(NC(=O)C2CCCO2)sc2c1CCCCC2` (stereo not given), the figure is 0.0471; as for `Cc1cc(C)cc(N(CC(=O)O)S(=O)(=O)c2c(C)noc2C)c1`, -0.132. The result for `COc1ccc(OC)c(NC(=O)c2cccnc2Sc2cc(C)ccc2C)c1` reads 0.576. Take `CCc1nnc(NC(=O)C2Cc3ccccc3C(=O)O2)s1` (stereo not given): the z-score was -0.848. `CCOC(=O)Nc1ccc2c(c1)N(C(=O)CCN1CCN(CCO)CC1)c1ccccc1S2`: the z-score is -0.337. In the case of `CCOc1ccccc1NS(=O)(=O)c1c(C)noc1C`, the z-score was -0.129. For the compound `COc1cc(C2C=C(C34CC5CC(CC(C5)C3)C4)NC(=S)N2)cc(OC)c1OC` (stereo not given), the z-score is -0.00499. With `Cc1cc(C(=O)OCC(=O)Nc2sc3c(c2C#N)CCC(C)C3)c2ccccc2n1` (stereo not given), the z-score was -0.0713. The result for `C=C(C)Cn1c(N2CCC(Cc3ccccc3)CC2)nc2c1c(=O)[nH]c(=O)n2C` reads 1.68; that for `CCOC(=O)c1cccc(NC(=O)CCc2nc(-c3ccccc3F)no2)c1`, -0.724; that for `Cc1ccccc1C(=O)N/N=C/c1ccccn1`, -0.12. Turning to `COCCN1Cc2cccc(C(=O)Nc3ccc4c(c3)OCCO4)c2C1=O`, the z-score is -0.553. On to `Cc1cccc(N/C(N)=N/c2nc3c(c(=O)[nH]2)CCCC3)c1`, for which the z-score is -0.177. Take `CN(C)S(=O)(=O)c1ccc(NS(=O)(=O)/C=C/c2ccccc2)cc1`: the z-score is -0.581. Turning to `Cc1ccc(C)c(NC(=S)NNC(=O)c2csc(C)c2C)c1`, the z-score came out at 2.09.

As to `O=C1CCCN1c1ccc(S(=O)(=O)Oc2cccc(Cl)c2)cc1[N+](=O)[O-]`, the z-score was -0.169. The result for `Cc1ccccc1S(=O)(=O)Cc1ccc(C(=O)NCc2cccnc2)o1` reads 0.132. As for `NS(=O)(=O)c1ccc(CCNCc2cc(Br)ccc2OCc2ccccc2)cc1`, the z-score is -0.122. As for `O=C(Nn1cnc2ccccc2c1=O)C1CCCCC1`, the figure is -0.112; as for `Cc1cccc(C)c1OC1(c2ccccc2)OC(=O)c2ccccc21` (stereo not given), -0.253; as for `COC(=O)c1c(C)[nH]c(C)c1-c1ccc(C)cc1`, -1.13. As for `COc1cccc(/C=N/n2c(SC)nnc2-c2ccccc2)c1O`, the figure is -0.751.

As for `Cc1cccc(-c2nnc(SCC(=O)Nc3nc4c(s3)CCCC4)n2C)c1`, the z-score was -1.4. `CCCOC(=O)c1ccc(Oc2c(-c3ccc(OCC)cc3O)n[nH]c2C)cc1`: the z-score is -1.19. As for `Cc1cccc(OCc2nnc(SCC(=O)N3CCc4ccccc43)n2C)c1`, the figure is 2.88. The result for `Cc1ccc(/C=C/C(=O)c2c(C)cc(C)[nH]c2=O)cc1` reads -0.116; that for `COCCn1c(SCC(=O)Nc2ncc(Cl)c(C)c2Cl)nc2ccccc21`, -0.494. As to `CCCCN(c1ccccc1)c1ncnc(N)c1[N+](=O)[O-]`, the z-score was -0.0801. As for `Cc1ccc(-n2nnnc2SCC(=O)Nc2cccc(NC(=O)c3ccco3)c2)cc1C`, the figure is 1.39; as for `CN1C(=O)c2ccccc2N(C)C1c1cccs1` (stereo not given), -1.51. As for `CC1=NNC(=O)C(CC(=O)Nc2ccc(Cl)c(Cl)c2)C1` (stereo not given), the figure is 0.199; as for `Cc1ccc(/C=C/C(=O)OC(C)C(=O)Nc2ncc(Cl)cc2Cl)o1` (stereo not given), -0.163.

Source of the values: PubChem BioAssay AID488969 (Vanderbilt High Throughput Screening Facility, 2010).
